From PubChem BioAssay AID1508649 (National Center for Advancing Translational Sciences (NCATS), 2021)
In all, about 43,000 compounds went through this assay and about 830 (1.9%) were called active. Inconclusive means that the source gave no clear call. Such entries were picked first, then a sample of the others. The calls were made as follows: active = clear falling dose curves in both reporters; inconclusive = both reporters move, but less clearly or upward; inactive = either reporter flat; the % is the NLuc reporter signal. No potency is given beside an inconclusive call; the fits are too rough.

Test: Cell-based coincidence reporter assay to measure PMP22 gene transcription in S16 Pmp22-F2sN cells - Primary screen
Details: S16 Pmp22-F2sN Schwann cells (luciferase reporters placed in the Pmp22 gene), FLuc/NLuc coincidence luminescence, 24 h; measured here: NLuc reporter readout, at 57.5 µM (top of the series); activity change, negative = inhibition: at the top concentration
Summary of the method: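 Luminescent read-out of sequential FLuc and NLuc signals from a reporter embedded in the Pmp22 3' UTR of S16 Schwann cells, taken after 24 h compound exposure at 37C; compounds reducing both signals score as inhibitors of expression.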
% is scaled to controls: 0 for no effect and ±100 for the full control effect; potency is read from the fitted curve at half-maximal effect; tags tell the direction and shape of the fitted curve.

SMILES	Potency	activity change, negative = inhibition
CCn1cc2nc(SCc3ccccc3Cl)n(CCc3ccccc3)c(=O)c2n1	inconclusive [phenotype inactive, partial curve, poor fit]	–
O=C(CCc1nnc2n(Cc3ccccc3Cl)c(=O)c3ccccc3n12)Nc1ccc(F)cc1	inconclusive [phenotype inactive, partial curve]	–
COc1ccc(NC(=O)Cn2c3ncccc3c(=O)n2-c2ccc(C)c(C)c2)c(OC)c1	inconclusive [phenotype inactive, single point]	–
Cc1ccc(CN2CCSc3ccc(C(=O)N4CCN(c5ccc(Cl)cc5)CC4)cc32)cc1	inconclusive [phenotype inactive, single point]	–
COc1ccc(-n2cc(C(=O)OCc3ccc(F)c(F)c3)c3ccccc3c2=O)cc1	inconclusive [phenotype inactive, single point]	–
CCOc1ccc2nc(N3CCN(C(=O)c4ccc5c(c4)CCCC5)CC3)sc2c1	inconclusive [phenotype inactive, single point]	–
COc1ccccc1NC(=O)c1c(NCc2ccc(C)o2)sc2c1CCC(C)C2 (centres undefined)	inconclusive [phenotype inactive, partial curve, poor fit]	–
CC(C(=O)Nc1cc(C(F)(F)F)ccc1Cl)n1nnc2sc3c(c2c1=O)CCCC3 (centres undefined)	–	inactive: -10.1%
Cc1cccc(OC(=O)c2cc(-c3ccc4c(c3)OCCO4)on2)c1	–	inactive: -12.7%
Cc1ccc(CNC(=O)CSc2nc(=O)[nH]c3c2CCCC3)cc1	inconclusive [phenotype inactive, single point]	–
Cc1nc2ccccc2n1CCc1nc2c3ccccc3nc(SCC(=O)Nc3ccc(Br)cc3F)n2n1	inconclusive [phenotype inactive, single point]	–
O=C(COc1ccc(F)cc1)Nc1ccc2nc(SCC(=O)N3CCc4ccccc43)sc2c1	active: 3.03 µM	–
CCOC(=O)c1ccc2oc(=O)n(Cc3ccccc3)c2c1	inconclusive [phenotype inactive, partial curve, poor fit]	–
O=C(NCC(c1ccco1)S(=O)(=O)c1cccs1)c1ccc(F)cc1 (centres undefined)	–	inactive: -8.16%
CCOc1ccc(NC(=O)CSc2nnc3scc(-c4ccc(Cl)cc4)n23)cc1	inconclusive [phenotype inactive, partial curve, poor fit]	–
Cc1ccc(OC(=O)c2cc(-c3ccc4c(c3)OCCO4)on2)cc1C	–	inactive: 4.82%
COc1ccc(NC(=O)c2oc3ccccc3c2NC(=O)c2cc3ccccc3o2)cc1	inconclusive [phenotype inactive, single point]	–
COc1ccc(Nc2ncc(C(=O)N3CCN(c4cccc(Cl)c4)CC3)c3ccccc23)cc1	active: 13.5 µM	–
Cc1cccc(NC(=O)CSc2nc(-c3ccccc3)cn2-c2ccccc2)c1C	inconclusive [phenotype inactive, single point]	–
Cn1c(=O)c2c(-c3ccccc3Cl)n(-c3cc(Cl)ccc3O)cc2n(C)c1=O	inconclusive [phenotype inactive, single point]	–

SMILES	Potency	activity change, negative = inhibition
COc1ccccc1Nc1c2c(nc3ccc(NC(=O)c4ccc(OC)c(OC)c4)cc13)CCCC2	inconclusive [phenotype inactive, single point]	–
COCCNC(=O)c1ccc(-n2c(-c3ccccc3)cc3c2CCC(C)C3)cc1 (centres undefined)	active: 10 µM	–
COc1ccc(CC(=O)Nc2sc3c(c2C(=O)Nc2cccc(C)c2)CCCCC3)cc1	active: 10 µM	–
Cc1ccc2c(c1)C(c1ccccc1)N(C(=O)c1ccc(S(=O)(=O)N3CCCC3)cc1)CC(=O)N2 (centres undefined)	inconclusive [phenotype inactive, single point]	–
CCC(C)n1c(=N)c(C(=O)NC2CCCC2)cc2c(=O)n3ccccc3nc21 (centres undefined)	active: 9.46 µM	–
COC(=O)C(NC(=O)CCc1c(C)nc2cc(-c3cccc(F)c3)nn2c1C)C(C)C (centres undefined)	–	inactive: -0.669%
CC1CCn2c(nc3cc(C(=O)NCCc4ccccc4)ccc32)C1 (centres undefined)	–	inactive: 24.7%
CCOc1ccc(-c2nnc(SCC(=O)Oc3ccccc3)o2)cc1	–	inactive: -10.4%
CCCNC(=O)Cn1ncc2c3ccccc3n(CCC)c2c1=O	–	inactive: -0.303%
CCCCN(Cc1ccco1)C(=O)c1cc2c(s1)-c1c(C)cccc1OC2	inconclusive [phenotype inactive, partial curve]	–
Cc1cccc(NC(=O)c2oc3ccc(S(=O)(=O)N(C)C4CCCCC4)cc3c2C)c1C	inconclusive [phenotype inactive, single point]	–
CC(C)c1ccc2oc(-c3cc(NC(=O)c4cccnc4)ccc3Cl)nc2c1	inconclusive [phenotype inactive, single point]	–
CCN1c2ccccc2-c2nc(SCC(=O)Nc3c(C)cc(C)cc3C)ncc2S1(=O)=O	inconclusive [phenotype inactive, single point]	–
Cc1cccc(NC(=O)CCNS(=O)(=O)c2cccc3nonc23)c1	–	inactive: 3.44%
Cc1ccc(NC(=O)NCC2CCN(Cc3cccc(Cl)c3)CC2)cc1Cl	inconclusive [phenotype inactive, partial curve]	–
CCc1ccccc1NC(=O)C(=O)NCC(c1cccnc1)N1CCc2ccccc21 (centres undefined)	inconclusive [phenotype inactive, single point]	–
CCOc1ccc(-c2cc(C(=O)N3CCN(c4cccc(C)c4)C(C)C3)c3ccccc3n2)cc1 (centres undefined)	–	inactive: -7.96%
CN(C(=O)CSc1nc2ccc(NC(=O)CCc3ccccc3)cc2s1)c1ccccc1	inconclusive [phenotype inactive, single point]	–
COc1ccc(NC(=O)C2CCCN(S(=O)(=O)c3c(C)n[nH]c3C)C2)cc1OC (centres undefined)	–	inactive: -16.8%
Cc1ccc(S(=O)(=O)N(CC(=O)N2CCc3ccccc3C2)c2ccc(C)c(C)c2)cc1	inconclusive [phenotype inactive, single point]	–

SMILES	Potency	activity change, negative = inhibition
COc1cc(C2c3c(oc4ccccc4c3=O)C(=O)N2c2nc(C)c(C)s2)ccc1O (centres undefined)	inconclusive [phenotype inactive, single point]	–
CCN(CC)c1cc(C)c2cc(NC(=O)/C=C/c3ccccc3Cl)ccc2n1	active: 11.9 µM	–
Cc1ccc(CN2CCC(CNC(=O)c3cnn(-c4ccccc4)c3C3CCN(C(=O)OC(C)(C)C)CC3)CC2)cc1	inconclusive [phenotype inactive, partial curve]	–
COc1ccc(-c2nc(C)c(CCNC(=O)C(=O)Nc3ccccc3F)s2)cc1	inconclusive [phenotype inactive, single point]	–
COc1ccc(S(=O)(=O)c2c(O)c(C)cc(NS(=O)(=O)c3ccc(Cl)cc3)c2C(C)C)cc1	inconclusive [phenotype inactive, single point]	–
Cc1ccc(S(=O)(=O)N2CCc3cc(C(=O)N(C)Cc4ccccc4)ccc32)cc1	inconclusive [phenotype inactive, partial curve]	–
Cc1cccc(N(C)S(=O)(=O)c2ccc(-c3cc(C)no3)s2)c1	active: 7.61 µM	–
COc1ccc2nc(NC(=O)c3nc(S(=O)(=O)Cc4ccccc4F)ncc3Cl)sc2c1	active: 4.8 µM	–
O=C(COc1ccc(F)cc1)Nc1nnc(S(=O)(=O)N2CCc3ccccc32)s1	inconclusive [phenotype inactive, single point]	–
Cc1nc2c3ccccc3nc(NNC(=O)CCC(=O)N3CCN(c4cccc(Cl)c4)CC3)n2n1	inconclusive [phenotype inactive, single point]	–
CC1=C(c2ccc(C(C)C)cc2)S(=O)(=O)NC1=NCc1ccccc1C	inconclusive [phenotype inactive, partial curve, poor fit]	–
CCOc1ccccc1C(=O)Oc1c(S(=O)(=O)c2ccc(C)cc2)c(C)nn1-c1ccccc1	inconclusive [phenotype inactive, single point]	–
O=C(Cn1c(=O)n(-c2ccccc2)c(=O)c2ccc(C(=O)NCc3ccc4c(c3)OCO4)cc21)Nc1ccc(F)cc1	inconclusive [phenotype inactive, single point]	–
CSc1ccc(-c2nc3cccc(C)n3c2Nc2ccc(Cl)cc2)cc1	inconclusive [phenotype inactive, single point]	–
Cc1cccc(CNC(=O)Cn2ccc3cc(S(=O)(=O)N4CCCCCC4)ccc32)c1	inconclusive [phenotype inactive, partial curve, poor fit]	–
CCOc1ccccc1NC(=O)CSc1nccn1-c1cccc(C)c1	inconclusive [phenotype inactive, single point]	–
COc1ccc2c(c1)CCc1c(C(=O)Nc3c(C)nn(Cc4ccccc4)c3C)noc1-2	inconclusive [phenotype inactive, partial curve, poor fit]	–
CCOc1ccc(NC(=O)c2cc(S(=O)(=O)NC3CCCCCC3)ccc2F)cc1	inconclusive [phenotype inactive, partial curve]	–
Cc1ccc(Nc2c(C(C)C)c(C)c(C#N)c3nc4ccccc4n23)cc1	inconclusive [phenotype inactive, single point]	–
